# Source: the supplement of paper PMC8728848
# The other results are listed elsewhere or left out.
# B1: Epa6 (Candida glabrata), Q6DTM7_CANGB (protein)
# chain: MGSSHHHHHHSSGLVPRGSHMKDDYSSSLSNNNLGWTDPTEFPLGCSPNVTTPKNGLSMELYSYDYLKSGSNPCWDAAYLDPNYPRTGYKSHRLLAKVENVAGNINFYYHAPMGCTSLFDTLPQAYNYRTPLTMTNFTMLLYGYFKPKVTGYHTFTISADDLLFVNFGAGNAFDCCKRESSADDFGNYQAYAVWGSQTAKDDLTVHLDAGLYYPIRIFFNNRDNDGALSLTLKTESDPNPVIDFSDYFYSFDDTKDGCPGLVSYDTS
# Tests used:
# Test in all cases: glycan array binding signal (z-score within array); higher = stronger binding
# Conditions in all cases: glycan notation: IUPAC condensed, linker removed
# [1] = molecular target: Gal(b1-4)GlcNAc(b1-2)[Gal(b1-4)GlcNAc(b1-6)]Man(a1-6)[Gal(b1-4)GlcNAc(b1-2)Man(a1-3)]Man(b1-4)GlcNAc(b1-4)[Fuc(a1-6)]GlcNAc
# Procedure, shortened: (§1)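 Glycan array data came from 3228 arrays in the Consortium for Functional Glycomics database, and only arrays with an available protein sequence were kept. Glycan names were put into IUPAC-condensed notation, and columns mapping to the same glycan were averaged. The binding signal is a within-array Z-score, averaged across arrays of one protein sequence run at different concentrations or buffers and across linkers. A negative Z-score can be read as non-binding.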
# [2] = molecular target: Gal(b1-4)GlcNAc(b1-2)[Gal(b1-4)GlcNAc(b1-6)]Man(a1-6)[GlcNAc(b1-4)][Gal(b1-4)GlcNAc(b1-2)Man(a1-3)]Man(b1-4)GlcNAc(b1-4)GlcNAc
# Procedure, shortened: as §1
# [3] = molecular target: Gal(b1-4)GlcNAc(b1-2)[Gal(b1-4)GlcNAc(b1-6)]Man(a1-6)[GlcNAc(b1-4)][Gal(b1-4)GlcNAc(b1-2)[Gal(b1-4)GlcNAc(b1-4)]Man(a1-3)]Man(b1-4)GlcNAc(b1-4)[Fuc(a1-6)]GlcNAc
# Procedure, shortened: as §1
# [4] = molecular target: Gal(b1-4)GlcNAc(b1-3)Gal(b1-3)GalNAc
# Procedure, shortened: as §1
# [5] = molecular target: Gal(b1-4)GlcNAc(b1-3)Gal(b1-3)GlcNAc
# Procedure, shortened: as §1
# [6] = molecular target: Gal(b1-4)GlcNAc(b1-3)Gal(b1-4)Glc
# Procedure, shortened: as §1
# [7] = molecular target: Gal(b1-4)GlcNAc(b1-3)Gal(b1-4)GlcNAc
# Procedure, shortened: as §1
# [8] = molecular target: Gal(b1-4)GlcNAc(b1-3)Gal(b1-4)GlcNAc(b1-2)Man(a1-3)[Gal(b1-4)GlcNAc(b1-3)Gal(b1-4)GlcNAc(b1-2)Man(a1-6)]Man(b1-4)GlcNAc(b1-4)GlcNAc
# Procedure, shortened: as §1
# [9] = molecular target: Gal(b1-4)GlcNAc(b1-3)Gal(b1-4)GlcNAc(b1-2)Man(a1-3)[Gal(b1-4)GlcNAc(b1-3)Gal(b1-4)GlcNAc(b1-2)Man(a1-6)]Man(b1-4)GlcNAc(b1-4)[Fuc(a1-6)]GlcNAc
# Procedure, shortened: as §1
# [10] = molecular target: Gal(b1-4)GlcNAc(b1-3)Gal(b1-4)GlcNAc(b1-2)[Gal(b1-4)GlcNAc(b1-3)Gal(b1-4)GlcNAc(b1-6)]Man(a1-6)[Gal(b1-4)GlcNAc(b1-3)Gal(b1-4)GlcNAc(b1-2)Man(a1-3)]Man(b1-4)GlcNAc(b1-4)GlcNAc
# Procedure, shortened: as §1
# [11] = molecular target: Gal(b1-4)GlcNAc(b1-3)Gal(b1-4)GlcNAc(b1-2)[Gal(b1-4)GlcNAc(b1-3)Gal(b1-4)GlcNAc(b1-6)]Man(a1-6)[Gal(b1-4)GlcNAc(b1-3)Gal(b1-4)GlcNAc(b1-2)Man(a1-3)]Man(b1-4)GlcNAc(b1-4)[Fuc(a1-6)]GlcNAc
# Procedure, shortened: as §1
# [12] = molecular target: Gal(b1-4)GlcNAc(b1-3)Gal(b1-4)GlcNAc(b1-3)Gal(b1-4)GlcNAc
# Procedure, shortened: as §1
# [13] = molecular target: Gal(b1-4)GlcNAc(b1-3)Gal(b1-4)GlcNAc(b1-3)Gal(b1-4)GlcNAc(b1-2)Man(a1-3)[Gal(b1-4)GlcNAc(b1-3)Gal(b1-4)GlcNAc(b1-3)Gal(b1-4)GlcNAc(b1-2)Man(a1-6)]Man(b1-4)GlcNAc(b1-4)GlcNAc
# Procedure, shortened: as §1
# [14] = molecular target: Gal(b1-4)GlcNAc(b1-3)Gal(b1-4)GlcNAc(b1-3)Gal(b1-4)GlcNAc(b1-2)Man(a1-3)[Gal(b1-4)GlcNAc(b1-3)Gal(b1-4)GlcNAc(b1-3)Gal(b1-4)GlcNAc(b1-2)Man(a1-6)]Man(b1-4)GlcNAc(b1-4)[Fuc(a1-6)]GlcNAc
# Procedure, shortened: as §1
# [15] = molecular target: Gal(b1-4)GlcNAc(b1-3)Gal(b1-4)GlcNAc(b1-3)Gal(b1-4)GlcNAc(b1-2)[Gal(b1-4)GlcNAc(b1-3)Gal(b1-4)GlcNAc(b1-3)Gal(b1-4)GlcNAc(b1-6)]Man(a1-6)[Gal(b1-4)GlcNAc(b1-3)Gal(b1-4)GlcNAc(b1-3)Gal(b1-4)GlcNAc(b1-2)Man(a1-3)]Man(b1-4)GlcNAc(b1-4)[Fuc(a1-6)]GlcNAc
# Procedure, shortened: as §1
# [16] = molecular target: Gal(b1-4)GlcNAc(b1-3)Gal(b1-4)GlcNAc(b1-3)Gal(b1-4)GlcNAc(b1-3)Gal(b1-4)GlcNAc(b1-2)Man(a1-3)[Gal(b1-4)GlcNAc(b1-3)Gal(b1-4)GlcNAc(b1-3)Gal(b1-4)GlcNAc(b1-3)Gal(b1-4)GlcNAc(b1-2)Man(a1-6)]Man(b1-4)GlcNAc(b1-4)GlcNAc
# Procedure, shortened: as §1
# [17] = molecular target: Gal(b1-4)GlcNAc(b1-3)Gal(b1-4)GlcNAc(b1-3)Gal(b1-4)GlcNAc(b1-3)Gal(b1-4)GlcNAc(b1-2)Man(a1-3)[Gal(b1-4)GlcNAc(b1-3)Gal(b1-4)GlcNAc(b1-3)Gal(b1-4)GlcNAc(b1-3)Gal(b1-4)GlcNAc(b1-2)Man(a1-6)]Man(b1-4)GlcNAc(b1-4)[Fuc(a1-6)]GlcNAc
# Procedure, shortened: as §1
# [18] = molecular target: Gal(b1-4)GlcNAc(b1-3)Gal(b1-4)GlcNAc(b1-3)Gal(b1-4)GlcNAc(b1-3)Gal(b1-4)GlcNAc(b1-2)[Gal(b1-4)GlcNAc(b1-3)Gal(b1-4)GlcNAc(b1-3)Gal(b1-4)GlcNAc(b1-3)Gal(b1-4)GlcNAc(b1-6)]Man(a1-6)[Gal(b1-4)GlcNAc(b1-3)Gal(b1-4)GlcNAc(b1-3)Gal(b1-4)GlcNAc(b1-3)Gal(b1-4)GlcNAc(b1-2)Man(a1-3)]Man(b1-4)GlcNAc(b1-4)[Fuc(a1-6)]GlcNAc
# Procedure, shortened: as §1
# [19] = molecular target: Gal(b1-4)GlcNAc(b1-3)Gal(b1-4)GlcNAc(b1-3)Gal(b1-4)GlcNAc(b1-3)Gal(b1-4)GlcNAc(b1-3)Gal(b1-4)GlcNAc(b1-2)Man(a1-3)[Gal(b1-4)GlcNAc(b1-3)Gal(b1-4)GlcNAc(b1-3)Gal(b1-4)GlcNAc(b1-3)Gal(b1-4)GlcNAc(b1-3)Gal(b1-4)GlcNAc(b1-2)Man(a1-6)]Man(b1-4)GlcNAc(b1-4)GlcNAc
# Procedure, shortened: as §1
binder,measurement,setting,value
B1,glycan array binding signal (z-score),[1],-0.125
same,glycan array binding signal (z-score),[2],-0.236
same,glycan array binding signal (z-score),[3],-0.147
same,glycan array binding signal (z-score),[4],-0.203
same,glycan array binding signal (z-score),[5],-0.26
same,glycan array binding signal (z-score),[6],-0.208
same,glycan array binding signal (z-score),[7],-0.188
same,glycan array binding signal (z-score),[8],-0.085
same,glycan array binding signal (z-score),[9],-0.045
same,glycan array binding signal (z-score),[10],-0.039
same,glycan array binding signal (z-score),[11],0.191
same,glycan array binding signal (z-score),[12],-0.243
same,glycan array binding signal (z-score),[13],0.068
same,glycan array binding signal (z-score),[14],0.016
same,glycan array binding signal (z-score),[15],0.164
same,glycan array binding signal (z-score),[16],0.07
same,glycan array binding signal (z-score),[17],-0.012
same,glycan array binding signal (z-score),[18],0.124
same,glycan array binding signal (z-score),[19],-0.016
